# Source: article PMC4336329 (PLoS ONE, 2015)
# The whole screen tested about 310,000 compounds, of which about 2,200 (0.71%) showed an effect of 50% or more. Effects have a minus sign here. The list shows a part of the results.
# Target: human ether-à-go-go-related gene (hERG) potassium channel (human, UniProt Q12809)
# Assay: primary screen, population patch clamp on CHO cells stably expressing hERG
# Sequence of human ether-à-go-go-related gene (hERG) potassium channel (Q12809 whole entry, looked up): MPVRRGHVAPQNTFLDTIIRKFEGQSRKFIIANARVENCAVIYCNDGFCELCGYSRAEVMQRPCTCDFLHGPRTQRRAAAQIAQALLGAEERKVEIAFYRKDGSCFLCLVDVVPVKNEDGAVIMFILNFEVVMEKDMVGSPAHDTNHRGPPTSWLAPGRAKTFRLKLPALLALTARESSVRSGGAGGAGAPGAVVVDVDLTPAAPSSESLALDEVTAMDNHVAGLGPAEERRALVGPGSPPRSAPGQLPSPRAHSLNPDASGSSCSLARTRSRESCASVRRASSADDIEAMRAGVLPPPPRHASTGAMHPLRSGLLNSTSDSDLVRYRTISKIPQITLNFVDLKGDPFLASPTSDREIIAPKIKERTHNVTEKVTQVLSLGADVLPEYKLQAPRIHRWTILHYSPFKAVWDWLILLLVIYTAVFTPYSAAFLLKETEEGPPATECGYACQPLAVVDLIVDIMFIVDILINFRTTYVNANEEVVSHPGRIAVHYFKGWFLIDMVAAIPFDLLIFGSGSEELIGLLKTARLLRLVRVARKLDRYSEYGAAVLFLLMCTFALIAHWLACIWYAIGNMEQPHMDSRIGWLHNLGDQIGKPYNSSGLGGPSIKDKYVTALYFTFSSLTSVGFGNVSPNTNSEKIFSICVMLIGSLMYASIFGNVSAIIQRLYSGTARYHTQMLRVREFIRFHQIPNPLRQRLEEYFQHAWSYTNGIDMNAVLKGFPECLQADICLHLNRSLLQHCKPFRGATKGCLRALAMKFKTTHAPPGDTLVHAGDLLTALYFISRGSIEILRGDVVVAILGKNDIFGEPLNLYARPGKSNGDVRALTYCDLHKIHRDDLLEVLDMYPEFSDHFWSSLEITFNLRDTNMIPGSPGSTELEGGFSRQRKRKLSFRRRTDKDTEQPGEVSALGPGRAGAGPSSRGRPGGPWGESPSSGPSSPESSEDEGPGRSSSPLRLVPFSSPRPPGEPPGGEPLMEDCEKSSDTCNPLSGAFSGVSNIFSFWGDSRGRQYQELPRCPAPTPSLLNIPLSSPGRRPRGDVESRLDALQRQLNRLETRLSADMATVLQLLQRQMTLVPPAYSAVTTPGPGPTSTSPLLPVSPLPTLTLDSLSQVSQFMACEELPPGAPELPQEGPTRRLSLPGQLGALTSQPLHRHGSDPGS
row,SMILES,"hERG current change (%, negative = inhibition) at 1uM [%]"
1,O=C(C1CCN(C2CC(=O)N(Cc3ccccc3)C2=O)CC1)N1CCCCCC1 (stereo not drawn),-6.73
2,O=C(NCc1ccccc1Cl)C1CCCN(S(=O)(=O)c2cccc3nonc23)C1 (stereo not drawn),14.6
3,CC(=O)Nc1ccc(NC(=O)CSC2=NS(=O)(=O)c3cc(F)ccc3N2)cc1,14.7
4,COc1ccc(S(=O)(=O)N2CCOCC2)cc1NC(=O)CSc1nnc(C2CC2)n1C1CC1,5.21
5,NC(=O)C1CCN(C(=O)c2ccc3c(=O)n(Cc4ccco4)c(SCC(=O)c4ccccc4)nc3c2)CC1,-1.31
6,CCCCn1c(SCC(=O)NC2CCCC2)nnc1-c1ccco1,-1.09
7,COC(=O)Cc1c(C)c2ccc(OCC(=O)N(C)C)cc2oc1=O,6.75
8,CCCCOc1ccccc1C1CC(=O)NC2=C1C(=O)CCC2 (stereo not drawn),-0.56
9,CCOC(=O)c1c(C)n(CC)c2c1cc(O)c1ccccc12,5.15
10,CCN(Cc1ccccc1)C(=O)COC(=O)CNS(=O)(=O)c1ccc(C)cc1,8.41
11,Cc1cccc(N2C(=O)C(Cl)=C(N3CCOCC3)C2=O)c1,15.4
12,COc1nc(OC)nc(N2CCC(C(=O)NCc3ccco3)CC2)n1,-0.721
13,Cc1ccccc1-n1c(SCC(=O)N/N=C/c2c(C)nn(-c3ccccc3)c2C)nc2ccccc2c1=O,2.3
14,CCOC(=O)N1C(=O)[C@](c2ccc(Cl)cc2)(C(C)C)N1C(=O)OCC,7.37
15,O=C(CN(C(=O)c1ccco1)c1cccc(F)c1)NCc1ccc(F)cc1,8.77
16,COc1ccc2nc(SCC(=O)Nc3nonc3C)[nH]c2c1,12.1
17,CCOC(=O)c1[nH]c2ccc(F)cc2c1NC(=O)Nc1ccccc1OC,9.61
18,CCOc1cc2c(cc1OCC)-n1cccc1C(c1ccccc1O)NC2.Cl (stereo not drawn),10.2
19,O=C(Nc1ccccc1N1CCOCC1)c1ccc2c(c1)C(=O)N(Cc1ccncc1)C2=O,-23.8
20,CCOC(=O)c1ccc(N2C(=O)C(C)=C(C)C2=O)cc1,13.2
21,CCC(=O)N1CCc2cc(Br)cc(S(=O)(=O)N3CCC(C(=O)NC(C)(C)C)CC3)c21,-1.52
22,Cc1ccc(OCC(=O)N2CCc3ccccc32)c([N+](=O)[O-])n1,2.49

row,SMILES,"hERG current change (%, negative = inhibition) at 1uM [%]"
1,Cc1ccc(NC(=O)CN2CC(C)SC2=NC2CCCCC2)cc1.Cl (stereo not drawn),1.84
2,Fc1ccccc1N1CCN(Cc2ccc3c(c2)OCO3)CC1,-2.65
3,CSCC[C@H](NC(=O)Nc1cccc(C(F)(F)F)c1)C(=O)O,9.72
4,Cc1ccc(SC[C@H](C)CN2CC[C@H](C)CCC2=O)cc1,11.3
5,COc1ccc(S(=O)(=O)Nc2c(NC3CCCCC3)c3ccccc3oc2=O)cc1Cl,13.8
6,CC1(C)CC(=O)C(CC2CCCCC2=O)C(=O)C1 (stereo not drawn),12.2
7,CC(C)NC(=O)CC1C(=O)N(Cc2ccccc2)C(C)c2nc3ccccc3n21 (stereo not drawn),7.98
8,Cc1ccc(-n2nnnc2SCC(=O)NNC(=O)c2ccco2)c(C)c1,7.1
9,Cc1[nH]c(=O)[nH]c(=O)c1S(=O)(=O)N1CCCC(C(=O)NCc2ccccc2Cl)C1 (stereo not drawn),-1.28
10,O=C(NCCc1nnc2ccc(NCCCN3CCOCC3)nn12)c1ccccc1F,13.1
11,Cc1cc(NCCN2CCOCC2)c2ccc3ccccc3c2n1,-58.3
12,O=C(COC(=O)CSc1ccc([N+](=O)[O-])cc1)NCCc1ccccc1,3.2
13,CC1(C)CC(=O)C2=C(C1)N(c1ccccc1C#N)C(N)=C(C#N)C2c1cccs1 (stereo not drawn),3.1
14,CCO/N=C(/C)c1c(O)cc(C(C)(C)C)n(-c2ccccc2)c1=O,1.63
15,COc1ccc2[nH]c3nc(SCC(=O)Nc4ccc5c(c4)OCO5)nnc3c2c1,7.59
16,CCCCN(CCCC)C(=O)c1nsnc1-c1ccccc1O,3.8
17,COc1ccc(NC(=O)Nc2ccc3c(c2)OCO3)c(C)c1,12.3
18,O=C(CCCn1c(SCC(=O)NCC2CCCO2)nc2ccccc2c1=O)NCc1ccccc1 (stereo not drawn),0.686
19,N#Cc1ccc(CN2CCN(C(=O)c3cn(Cc4ccccc4)nc3-c3cccnc3)CC2)cc1,-30
20,CSc1nsc(SCc2cnc(C)nc2N)n1,9.96
21,COc1ccc(OC)c(S(N)(=O)=O)c1,17.8
22,CCc1nc(C#N)c(N2CCOCC2)o1,6.34

row,SMILES,"hERG current change (%, negative = inhibition) at 1uM [%]"
1,Cc1cc(C)c2c(=O)n(CC(=O)N3CCC(N4CCCCC4)CC3)sc2n1,-1.96
2,COc1ccc(CNC(=O)c2cc(C3CC3)nc3c2cnn3C(C)C)cc1,13.2
3,O=C(NC1CCOC1)c1cc(COc2cccc(C(F)(F)F)c2)on1 (stereo not drawn),15.1
4,Cc1c(NC(=O)c2cnn3c(C(F)(F)F)cc(-c4ccco4)nc23)c(=O)n(-c2ccccc2)n1C,7.06
5,O=C(N/N=C/c1ccc([N+](=O)[O-])cc1)c1cccc(N2CCCC2=O)c1,5.84
6,O=c1oc(-c2ccccc2NS(=O)(=O)c2ccc(Cl)cc2)nc2ccccc12,14.3
7,CCc1c(C)sc(NC(=O)/C=C/c2ccc3c(c2)OCO3)c1C(=O)OC,10.9
8,Cc1c(C(=O)N2CCN(c3ncccn3)CC2)oc2c(Cl)cccc12,-5.4
9,Cc1cc(S(=O)(=O)NCCN2CCOCC2)ccc1Cl,14.5
10,CC(=O)c1ccc(OC(=O)c2ccc(-n3nc(C)cc3C)cc2)cc1,5.1
11,Cc1ccccc1NC(=O)NC(C)(C)CC(C)(C)C,14.1
12,COc1cc(CN2CCC(CO)(CCOc3ccccc3)CC2)cc(OC)c1,-8.26
13,NC(=O)c1ccc(N=Nc2c(O)[nH]c(=O)[nH]c2=O)cc1,2.48
14,CCC(C)NC(=O)CSc1nnc(-c2c[nH]c3ccccc23)o1 (stereo not drawn),6.83
15,Cc1ccc2[nH]c(C)c(/C=C/c3cc[n+](C)cc3)c2c1.[I-],15.8
16,Nc1nnc(SCC(=O)OCC(=O)Nc2ccccc2F)s1,3.47
17,COC(=O)c1ccc2c(=O)n(CCN3CCOCC3)c(SCC(=O)NCc3ccccc3)nc2c1,-0.617
18,Cc1cc(NCCN2CCOCC2)n2ncc(-c3ccccc3)c2n1,4.56
19,COc1ccc(Cn2nnnc2C(c2ccccc2Cl)N2CCC(C(N)=O)CC2)cc1 (stereo not drawn),8.14
20,Cc1cc(=O)[nH]c2c1c(C)nn2C(C)(C)C,10.5
21,C#CC(CC)(CC)NC(=O)Nc1ccccc1C(=O)OC,9.34
22,CC(=O)N1c2ccc(S(=O)(=O)NCC3CCC(C(=O)N(C)Cc4ccccc4)CC3)cc2CC1C (stereo not drawn),10.8

row,SMILES,"hERG current change (%, negative = inhibition) at 1uM [%]"
1,COc1ccc(-c2nc(SCC(=O)Nc3c(F)cccc3F)n[nH]2)cc1,-1.88
2,O=C(Nc1ccccc1N1CCCCC1)c1cccs1,-14.7
3,COc1ccc(C2=NN(C(=O)CCCC(=O)O)C(c3cccs3)C2)cc1OC (stereo not drawn),16.5
4,COc1c2ccoc2nc2c(OC)c(OCC(O)C(C)(C)O)ccc12 (stereo not drawn),20.9
5,Cc1cccc(CCNC(=O)CCS(=O)(=O)c2ccc3nc(C)sc3c2)c1,6.03
6,Cc1nn(CCC(=O)NNC(=S)Nc2ccc(Cl)cc2)c(C)c1[N+](=O)[O-],14.9
7,CC1CCCN(CCCNC(=O)C2CCN(S(=O)(=O)N3CCC4(CC3)OCCO4)CC2)C1 (stereo not drawn),13.2
8,Cc1ccc(C(=O)Cc2nnc(C)s2)cc1,1.24
9,CCOC(=O)C1=C(CS(=O)(=O)c2ccc(Cl)cc2)NC(=O)NC1c1ccc(O)c(OC)c1 (stereo not drawn),9.27
10,CC(C)c1c(C(=O)N/N=C/c2ccc(C(F)(F)F)cc2)nnn1-c1nonc1N,-0.403
11,CCn1c(=N)n(CC(O)c2ccco2)c2ccccc21.Cl (stereo not drawn),-7.63
12,Cc1ccc(NC(=O)CCC(=O)NNC(=O)COc2ccc([N+](=O)[O-])cc2)cc1C,2.42
13,CCN1C(=O)C2(C(C#N)=C(N)Oc3n[nH]c(-c4ccc(Cl)cc4)c32)c2ccccc21 (stereo not drawn),12
14,CCOC(=O)c1nc(N)c(C(=O)OCC)[nH]1,13.9
15,O=C(Nc1cccc(-c2ccc3nncn3n2)c1)C(F)(F)F,7.84
16,COC(=O)CN1C(=O)COc2ccc(S(=O)(=O)NCc3ccc(F)cc3)cc21,-0.703
17,COc1ccc(CNC(=O)CSc2nnc(C)n2-c2ccc(F)cc2)cc1,-2.52
18,COc1cccc(CNS(=O)(=O)c2cn(C)cn2)c1,10.1
19,COC(=O)C(Cc1c[nH]c2ccccc12)NC(=O)c1cc(-c2ccc(OC)c(OC)c2)oc1C (stereo not drawn),7.15
20,COc1cc(C(=O)NNC(=O)COc2cccc(F)c2)ccc1OCC(=O)N1CCOCC1,5.92
21,CCC(=O)Nc1ccc2nn(-c3ccc(F)cc3)nc2c1,12
